# In PubChem BioAssay AID1347120 (National Center for Advancing Translational Sciences (NCATS), 2019):
# In all, about 390,000 compounds went through this assay and about 930 (0.24%) were called active. Inconclusive means that the source gave no clear call. Such entries were picked first, then a sample of the others. Calls come from the whole dose curve; as a rule, active = well fitted activation curve with a large enough effect; inconclusive = small, poorly fitted or top-dose-only effect; inactive = no such curve, though single readings can be large or run the other way. Where the call is inconclusive, the potency comes from a doubtful curve fit.
# Assay: qHTS for Suppressors of FUS Proteinopathy: Primary screen using FUS-linked yeast assay; note: nearly all actives have a fitted effect of over 55% in size;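 for growth rescue (activation): plate controls were DMSO vehicle for no effect and reference control for full effect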
# Settings: S. cerevisiae FUS-expressing, OD600, 24 h; Potency: growth rescue; growth rescue (activation): at 76.6 µM (top of the series)
# Outline: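 Steps: raffinose overnight preculture; dilution to OD 0.005 in 2% galactose minimal medium; compound addition (concentration series); 24hr at 30C, 99% humidity; absorbance read at 600 nm.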
# Potency is the fitted concentration of half-maximal effect; tags give direction and shape of the fitted curve.
SMILES,Potency,growth rescue (activation)
CN(C(=O)COc1nnc(-c2cccs2)c(-c2cccs2)n1)c1ccccc1,"inconclusive: 35.5 µM [activator, single point]",–
Cc1ccc(S(=O)(=O)c2nc(S(C)(=O)=O)sc2N(C)Cc2ccccc2)cc1,"inconclusive: 50.1 µM [activator, partial curve, poor fit]",–
CC(C)(C)C1CCc2onc(C(=O)Nc3cccnc3)c2C1 (centres undefined),"inconclusive: 39.8 µM [activator, partial curve]",–
COc1ccc(OC)c2[nH]c(=O)c(CCNC(=O)c3cc4ccccc4o3)cc12,"inconclusive: 28.2 µM [activator, partial curve]",–
COCCCN=CC1=C(O)CC(C)(C)CC1=O,"inconclusive: 25.1 µM [activator, single point]",–
O=C(C1CCN(S(=O)(=O)Cc2ccccc2)CC1)N1CCN(c2ccccc2)CC1,–,inactive: 0.489%
CCOC(=O)c1cccc(NS(=O)(=O)c2ccc(-c3cnc(C4CC4)o3)cc2)c1,"inconclusive: 28.2 µM [activator, single point]",–
COc1ccccc1NC(=O)CSc1ncc2c(n1)-c1cc(Cl)ccc1N(Cc1ccccc1)S2(=O)=O,"inconclusive: 7.94 µM [activator, partial curve, poor fit]",–
CC(=O)Nc1ccc(C23CC4CC(CC(C4)C2)C3)cc1,–,inactive: -14.9%
CN(Cc1ccccc1)CC(O)COc1ccc(CNCc2nccn2C)cc1 (centres undefined),–,inactive: 1.89%
Cc1ccc(C(=O)N2CCN(c3ccc(NC(=O)c4ccc(Br)o4)cc3)CC2)cc1,"inconclusive: 11.2 µM [activator, partial curve, poor fit]",–
Oc1ccccc1N1CCN(c2nnnn2-c2ccccc2)CC1,–,inactive: 13.5%
COc1ccc(Cc2c(-c3ccc(F)cc3)nc3ccc(Cl)cn23)c(C)c1,"inconclusive: 35.5 µM [activator, single point]",–
O=C(Cc1cccc(C(F)(F)F)c1)Nc1ccccc1,–,inactive: -19.4%
Cc1ccc(-n2nc(CO)c(C(=O)NCc3cccnc3)n2)cc1,–,inactive: 15%
CCN1/C(=C/C=C/C=C/C=C/c2sc3ccccc3[n+]2CC)Sc2ccccc21,"inconclusive: 28.2 µM [activator, partial curve, poor fit]",–
O=C1[C@H]2[C@@H](c3ccc(F)cc3)N3C(=O)N(c4cccc(Cl)c4)C(=O)[C@@]3(Cc3ccc(Cl)cc3)[C@H]2C(=O)N1C1CCCCC1,"inconclusive: 25.1 µM [activator, single point]",–
COc1cc(OC)cc(-c2cc3nc(C)c(CCC(=O)NCc4ccc(Cl)cc4)c(C)n3n2)c1,"inconclusive: 50.1 µM [activator, single point]",–
COc1ccc2c(C(c3ccccc3O)C3CCCN3S(=O)(=O)c3ccc(C)cc3)cn(C)c2c1 (centres undefined),"inconclusive: 20 µM [activator, partial curve, poor fit]",–
Cc1noc(NS(=O)(=O)c2ccc(NC(=O)CSc3nnc(-c4ccccc4)n3C3CCCCC3)cc2)c1C,"inconclusive: 44.7 µM [activator, partial curve, poor fit]",–

SMILES,Potency,growth rescue (activation)
c1ccc2c(c1)OCC(c1nnc3sc(-c4ccc5c(c4)OCO5)nn13)O2 (centres undefined),"inconclusive: 39.8 µM [activator, partial curve, poor fit]",–
CCOC(=O)c1c(C)[nH]c(C)c1S(=O)(=O)N1CCN(c2cccc(C(F)(F)F)c2)CC1,"inconclusive: 50.1 µM [activator, single point]",–
CCC(C)C(NS(=O)(=O)c1ccc(C)cc1)C(=O)Oc1ccc2c3c(c(=O)oc2c1)CCC3 (centres undefined),"inconclusive: 31.6 µM [activator, partial curve, poor fit]",–
Cc1ccc(NC(=O)c2ccc(CSc3nnc(C)s3)cc2)c(C)c1,–,inactive: 3.11%
CCCCN(C)C(=O)c1ccc(Nc2nc(C(N)CCc3ccccc3)cs2)nc1 (centres undefined),"inconclusive: 28.2 µM [activator, single point]",–
Cc1ccc(CO/N=C\Cc2snc(Sc3ncc(C(F)(F)F)cc3Cl)c2C#N)cc1,"inconclusive: 3.55 µM [activator, full curve]",–
Cc1cccc(C(=O)Nc2nnc(S(=O)(=O)N(C)c3ccccc3C)s2)c1,–,inactive: 6.85%
C#CCOCCOCCOCCNc1nc(N2CCN(C(=O)CCCCCCCCCCNC(=O)Cn3cc(CCCCCN)nn3)CC2)nc(N2CCN(C(=O)CCCCCCCCCCNC(=O)[C@@H](CCSC)n3cc(CCO)nn3)CC2)n1,"inconclusive: 15.8 µM [activator, partial curve, poor fit]",–
O=C(Nc1cccc(F)c1)C1CCN(S(=O)(=O)c2cccc3nsnc23)CC1,–,inactive: 24.2%
CCOc1ccc(C(=O)NC(=S)Nc2ccccc2N2CCC(C)CC2)cc1[N+](=O)[O-],"inconclusive: 8.91 µM [activator, partial curve, poor fit]",–
CCN(CC)S(=O)(=O)c1ccc(N2CCCC2)c(NS(=O)(=O)c2cccs2)c1,"inconclusive: 31.6 µM [activator, partial curve, poor fit]",–
CCOc1ccc(Br)cc1S(=O)(=O)Nc1ccc(Cl)c(S(=O)(=O)N(CC)c2ccccc2)c1,"inconclusive: 14.1 µM [activator, partial curve, poor fit]",–
CCCN1C(=O)C2(c3ccccc31)c1c(oc3ccc(F)cc3c1=O)C(=O)N2CCCOC(C)C (centres undefined),–,inactive: 11.3%
CCCN(C(=O)c1cc2c(s1)CCC2)c1c(N)n(Cc2ccccc2)c(=O)[nH]c1=O,"inconclusive: 39.8 µM [activator, single point]",–
Cc1oc2ncnc(N3CCCCC3)c2c1C(=O)N1CCN(c2cccc(Cl)c2)CC1,"inconclusive: 25.1 µM [activator, single point]",–
CC1(C)CC(=O)C=C(Nc2ccccc2NC(=O)c2cc(F)cc(F)c2)C1,–,inactive: 1.13%
COC(=O)[C@H](CCSC)NC(=O)N1CCN(c2cccc(C(F)(F)F)c2)CC1,–,inconclusive: 86.2% [activator]
CC(=O)Nc1ccc(NC(=O)COc2cc(O)c3c(c2)OC(C)(C)CC3=O)cc1,–,inactive: -7.21%
CN1C(=O)c2ccccc2C(C(=O)NCCCN2CCCC2)C1c1c[nH]c2ccccc12 (centres undefined),"inconclusive: 7.08 µM [activator, single point]",–
